Test results as given in the supplement of paper PMC8728848.
Some of the results follow.

What was measured:
Test in all cases: glycan array binding signal (z-score within array); higher = stronger binding
Details in all cases: glycan notation: IUPAC condensed, linker removed
[1] = molecular target: Gal3S(b1-4)[Fuc(a1-3)]Glc
Method in brief: (§1)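 From the Consortium for Functional Glycomics database, 3228 arrays were curated, keeping only those whose protein sequence was available. Binding is given as a within-array Z-score averaged across arrays sharing a protein sequence and across linkers. Negative Z-scores can be read as non-binding.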

[2] = molecular target: Gal3S(b1-4)[Fuc(a1-3)]Glc6S
Method in brief: as §1

[3] = molecular target: Gal3S4S(b1-4)GlcNAc
Method in brief: as §1

[4] = molecular target: Gal3S6S(b1-4)GlcNAc
Method in brief: as §1

[5] = molecular target: Gal3S6S(b1-4)GlcNAc6S
Method in brief: as §1

[6] = molecular target: Gal4S(b1-4)GlcNAc
Method in brief: as §1

[7] = molecular target: Gal4S6S(b1-4)GlcNAc
Method in brief: as §1

[8] = molecular target: Gal6S(b1-4)Glc
Method in brief: as §1

[9] = molecular target: Gal6S(b1-4)Glc6S
Method in brief: as §1

[10] = molecular target: Gal6S(b1-4)GlcNAc
Method in brief: as §1

[11] = molecular target: Gal6S(b1-4)GlcNAc6S
Method in brief: as §1

[12] = molecular target: GalNAc(a1-3)Gal
Method in brief: as §1

[13] = molecular target: GalNAc(a1-3)GalNAc
Method in brief: as §1

[14] = molecular target: GalNAc(a1-3)GalNAc(a1-3)Gal(a1-4)Gal(b1-4)GlcNAc
Method in brief: as §1

[15] = molecular target: GalNAc(b1-3)Gal
Method in brief: as §1

[16] = molecular target: GalNAc(b1-3)Gal(a1-4)Gal(b1-4)GlcNAc
Method in brief: as §1

[17] = molecular target: GalNAc(b1-3)Gal(a1-4)Gal(b1-4)GlcNAc(b1-3)Gal(b1-4)Glc
Method in brief: as §1

[18] = molecular target: GalNAc(b1-3)Gal(a1-6)Gal(b1-4)Glc
Method in brief: as §1

[19] = molecular target: GalNAc(b1-3)GalNAc
Method in brief: as §1

[20] = molecular target: GalNAc(b1-4)GlcNAc
Method in brief: as §1

[21] = molecular target: GalNAc(b1-4)GlcNAc(b1-2)Man(a1-3)[GalNAc(b1-4)GlcNAc(b1-2)Man(a1-6)]Man(b1-4)GlcNAc(b1-4)GlcNAc
Method in brief: as §1

[22] = molecular target: Glc(a1-4)Glc
Method in brief: as §1

[23] = molecular target: Glc(a1-6)Glc(a1-6)Glc
Method in brief: as §1

[24] = molecular target: Glc(b1-4)Glc
Method in brief: as §1

[25] = molecular target: Glc(b1-6)Glc
Method in brief: as §1

[26] = molecular target: GlcA(b1-3)Gal
Method in brief: as §1

[27] = molecular target: GlcA(b1-3)GlcNAc
Method in brief: as §1

[28] = molecular target: GlcA(b1-6)Gal
Method in brief: as §1

[29] = molecular target: GlcNAc(a1-3)Gal(b1-4)GlcNAc
Method in brief: as §1

[30] = molecular target: GlcNAc(a1-4)Gal(b1-3)GlcNAc
Method in brief: as §1

[31] = molecular target: GlcNAc(a1-4)Gal(b1-4)GalNAc
Method in brief: as §1

[32] = molecular target: GlcNAc(a1-4)Gal(b1-4)GlcNAc
Method in brief: as §1

[33] = molecular target: GlcNAc(a1-4)Gal(b1-4)GlcNAc(b1-3)Gal(b1-4)Glc
Method in brief: as §1

[34] = molecular target: GlcNAc(a1-4)Gal(b1-4)GlcNAc(b1-3)Gal(b1-4)GlcNAc
Method in brief: as §1

[35] = molecular target: GlcNAc(a1-4)Gal(b1-4)GlcNAc(b1-3)Gal(b1-4)GlcNAc(b1-3)Gal(b1-4)GlcNAc
Method in brief: as §1

[36] = molecular target: GlcNAc(a1-4)Gal(b1-4)GlcNAc(b1-3)Gal(b1-4)[Fuc(a1-3)]GlcNAc(b1-3)Gal(b1-4)[Fuc(a1-3)]GlcNAc
Method in brief: as §1

[37] = molecular target: GlcNAc(a1-6)Gal(b1-4)GlcNAc
Method in brief: as §1

[38] = molecular target: GlcNAc(b1-2)Gal(b1-3)GalNAc
Method in brief: as §1

[39] = molecular target: GlcNAc(b1-2)Man(a1-3)[GlcNAc(b1-2)Man(a1-6)]Man(b1-4)GlcNAc(b1-4)GlcNAc
Method in brief: as §1

[40] = molecular target: GlcNAc(b1-2)Man(a1-3)[GlcNAc(b1-2)Man(a1-6)]Man(b1-4)GlcNAc(b1-4)[Fuc(a1-6)]GlcNAc
Method in brief: as §1

[41] = molecular target: GlcNAc(b1-2)[GlcNAc(b1-4)]Man(a1-3)[GlcNAc(b1-2)Man(a1-6)]Man(b1-4)GlcNAc(b1-4)GlcNAc
Method in brief: as §1

[42] = molecular target: GlcNAc(b1-3)Gal
Method in brief: as §1

[43] = molecular target: GlcNAc(b1-3)Gal(b1-3)GalNAc
Method in brief: as §1

[44] = molecular target: GlcNAc(b1-3)Gal(b1-4)Glc
Method in brief: as §1

[45] = molecular target: GlcNAc(b1-3)Gal(b1-4)GlcNAc
Method in brief: as §1

B1: Lmo1413 (Listeria monocytogenes), Q8Y783 (protein)
chain: MKHAKKSLFTFIIFMTILSITFNPFSAKAAPLMLNLPAPQVDQLYIGDDYITGKLQQEVPMHYPGNAAYVLFNNKQYNITDYTVENDVNFRLKLPKTLEAGDTLNYFTITGNVLDPVAYPGQESYKLAGPFSPIEKANIQVNYVDETNQTLATSDTLSGKLGETYTTSPKAIDGYQVKETPTNATGTYTTNTETIQINYVYEKTAVEGANVSVEYINEATNESIAPTETLSGKIGTTFQAEVKEIDGYELSQVPSNQSGTYTDQTQSVIFKYKKITTPDEVAKDVTVTYKDTKGNQLADPVILKGDIGSTFETEAKSFKGYKLTKTPSNHSSVFTSDSQEVEYVYSKDDAVITPPVTPVNPDKPIINPVKPVNPATSTVPNKNISKKNTTKTVNQTGKTSTALQLPKTGDSENNLPLIIGVSLLISGVYIFTTRRKRVK
- glycan array binding signal (z-score) [1]: -0.07
- glycan array binding signal (z-score) [2]: -0.185
- glycan array binding signal (z-score) [3]: -0.058
- glycan array binding signal (z-score) [4]: -0.21
- glycan array binding signal (z-score) [5]: -0.163
- glycan array binding signal (z-score) [6]: -0.075
- glycan array binding signal (z-score) [7]: 0.031
- glycan array binding signal (z-score) [8]: 0.139
- glycan array binding signal (z-score) [9]: 0.125
- glycan array binding signal (z-score) [10]: 0.056
- glycan array binding signal (z-score) [11]: 0.06
- glycan array binding signal (z-score) [12]: -0.115
- glycan array binding signal (z-score) [13]: 0.042
- glycan array binding signal (z-score) [14]: -0.181
- glycan array binding signal (z-score) [15]: -0.182
- glycan array binding signal (z-score) [16]: -0.219
- glycan array binding signal (z-score) [17]: -0.168
- glycan array binding signal (z-score) [18]: 0.128
- glycan array binding signal (z-score) [19]: -0.048
- glycan array binding signal (z-score) [20]: -0.13
- glycan array binding signal (z-score) [21]: -0.233
- glycan array binding signal (z-score) [22]: 2.23
- glycan array binding signal (z-score) [23]: -0.034
- glycan array binding signal (z-score) [24]: 1.27
- glycan array binding signal (z-score) [25]: 0.048
- glycan array binding signal (z-score) [26]: -0.041
- glycan array binding signal (z-score) [27]: 1.78
- glycan array binding signal (z-score) [28]: 0.693
- glycan array binding signal (z-score) [29]: 1.66
- glycan array binding signal (z-score) [30]: -0.24
- glycan array binding signal (z-score) [31]: -0.256
- glycan array binding signal (z-score) [32]: -0.233
- glycan array binding signal (z-score) [33]: -0.095
- glycan array binding signal (z-score) [34]: 0.302
- glycan array binding signal (z-score) [35]: -0.121
- glycan array binding signal (z-score) [36]: -0.106
- glycan array binding signal (z-score) [37]: 1.42
- glycan array binding signal (z-score) [38]: 2.98
- glycan array binding signal (z-score) [39]: -0.237
- glycan array binding signal (z-score) [40]: -0.221
- glycan array binding signal (z-score) [41]: -0.212
- glycan array binding signal (z-score) [42]: -0.176
- glycan array binding signal (z-score) [43]: 0.616
- glycan array binding signal (z-score) [44]: 0.375
- glycan array binding signal (z-score) [45]: -0.093
